Our source for the binding values is PMC10400884.

Chains of the proteins cited; added tags and fusions are not shown.
UniProt O14744: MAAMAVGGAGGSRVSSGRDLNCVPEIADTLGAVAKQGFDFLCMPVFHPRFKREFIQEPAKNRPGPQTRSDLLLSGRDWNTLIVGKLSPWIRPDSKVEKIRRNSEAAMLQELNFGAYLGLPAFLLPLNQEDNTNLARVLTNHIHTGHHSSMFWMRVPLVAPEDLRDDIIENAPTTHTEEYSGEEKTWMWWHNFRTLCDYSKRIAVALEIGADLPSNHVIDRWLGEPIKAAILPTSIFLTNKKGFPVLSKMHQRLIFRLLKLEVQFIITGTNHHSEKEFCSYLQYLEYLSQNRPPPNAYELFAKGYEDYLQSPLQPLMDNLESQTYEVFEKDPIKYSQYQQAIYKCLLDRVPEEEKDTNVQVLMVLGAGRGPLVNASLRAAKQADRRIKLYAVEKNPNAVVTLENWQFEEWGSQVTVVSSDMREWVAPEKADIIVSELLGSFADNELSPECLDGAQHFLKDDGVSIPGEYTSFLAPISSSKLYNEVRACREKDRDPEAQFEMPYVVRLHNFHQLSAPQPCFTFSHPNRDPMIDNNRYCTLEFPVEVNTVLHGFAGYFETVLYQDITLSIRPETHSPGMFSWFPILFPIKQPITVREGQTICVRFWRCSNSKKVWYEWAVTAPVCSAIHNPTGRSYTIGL
UniProt P04150: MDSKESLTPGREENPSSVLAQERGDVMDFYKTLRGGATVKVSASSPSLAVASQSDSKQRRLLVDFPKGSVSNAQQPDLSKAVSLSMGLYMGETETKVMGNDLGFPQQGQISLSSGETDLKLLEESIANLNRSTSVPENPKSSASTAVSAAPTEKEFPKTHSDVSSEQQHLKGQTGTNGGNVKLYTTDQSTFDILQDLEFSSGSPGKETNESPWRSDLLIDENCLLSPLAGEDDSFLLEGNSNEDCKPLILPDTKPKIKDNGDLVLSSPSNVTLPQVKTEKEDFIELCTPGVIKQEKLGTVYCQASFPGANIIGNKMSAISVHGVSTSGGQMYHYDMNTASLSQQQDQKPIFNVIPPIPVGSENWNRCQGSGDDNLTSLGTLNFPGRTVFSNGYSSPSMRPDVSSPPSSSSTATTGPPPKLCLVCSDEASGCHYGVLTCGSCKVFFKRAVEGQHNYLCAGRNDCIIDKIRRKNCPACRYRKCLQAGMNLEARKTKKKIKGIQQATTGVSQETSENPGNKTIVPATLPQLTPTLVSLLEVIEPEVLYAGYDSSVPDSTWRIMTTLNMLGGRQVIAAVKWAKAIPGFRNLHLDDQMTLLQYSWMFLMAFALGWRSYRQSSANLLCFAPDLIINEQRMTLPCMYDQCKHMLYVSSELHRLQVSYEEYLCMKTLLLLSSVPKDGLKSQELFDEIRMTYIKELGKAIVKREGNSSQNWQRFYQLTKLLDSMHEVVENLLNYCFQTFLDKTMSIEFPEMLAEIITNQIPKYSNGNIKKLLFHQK
UniProt Q13185: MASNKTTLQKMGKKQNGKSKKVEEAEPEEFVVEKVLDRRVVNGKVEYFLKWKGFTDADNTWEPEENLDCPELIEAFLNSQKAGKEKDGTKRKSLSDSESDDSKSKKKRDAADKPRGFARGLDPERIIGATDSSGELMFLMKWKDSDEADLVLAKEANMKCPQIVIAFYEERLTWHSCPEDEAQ

These are yes or no findings as the source states them, for the method shown. In cells and extracts the contact can be indirect. Some entries that bind do so weakly or less than the wild type.

Test [1] addresses V5-PRMT5 overexpressed in Cos-7 cells (psg5-V5-PRMT5) (UniProt O14744). The experiment in a line: co-IP; Cos-7 cells transfected with plasmids encoding PRMT5, GR and HP1γ; RIPA lysates immunoprecipitated with HP1γ, PRMT5 or GR antibody, protein A agarose; immunoblot. For orientation: In western blotting, separated proteins are transferred to a membrane and probed.
Test [2] deals with arginine methyltransferase PRMT5, endogenous (human (endogenous in MDA-MB-231, breast tumours)) (UniProt O14744). The experiment in a line: co-IP; endogenous proteins: MDA-MB-231 cells with or without 100 nM Dex for 8 h; lysates immunoprecipitated with PRMT5 antibody; immunoblot.
For test [3] the target is unchanged. The test can be described thus: proximity ligation; PLA with pairs of primary antibodies on methanol-fixed TNBC cells (endogenous proteins); 100 nM Dex or ethanol for 2 h; also with siRNAs (GR, HP1γ, PRMT5, G9a, GLP), prednisolone, hydrocortisone, RU486 or GSK595.
For test [4], the target named is HP1γ, endogenous in Cos-7 cells (African green monkey (endogenous in Cos-7)). The test can be described thus: co-IP; semi-endogenous CoIP: Cos-7 cells transfected with plasmids encoding PRMT5 and GR; lysates immunoprecipitated with HP1γ antibody; immunoblot.
In test [5] the target is GR overexpressed in Cos-7 cells (pcdna3.1-GR) (UniProt P04150). The experiment in a line: co-IP; Cos-7 cells transfected with plasmids encoding PRMT5, GR and HP1γ; RIPA lysates immunoprecipitated with HP1γ, PRMT5 or GR antibody, protein A agarose; immunoblot.
The target in test [6] is HA-HP1γ overexpressed in Cos-7 cells (pcdna3.1-HA-HP1γ) (UniProt Q13185). The description is as above.
The target of test [7] is glucocorticoid receptor (GR), endogenous (human (endogenous in MDA-MB-231 and other TNBC cell lines, breast tumours)) (UniProt P04150). The experiment in a line: proximity ligation; PLA for GR/PRMT5 on formalin-fixed human breast tumours sampled at diagnosis.
For test [8] the target is unchanged. The experiment in a line: proximity ligation; PLA for GR/PRMT5 on breast cancer patient-derived xenografts (primary tumours and residual tumours after chemotherapy with GCs). A general note: In xenograft studies the graft and the host belong to different species.
The target is the same in test [9]. The test can be described thus: proximity ligation; PLA with pairs of primary antibodies on methanol-fixed TNBC cells (endogenous proteins); 100 nM Dex or ethanol for 2 h; also with siRNAs (GR, HP1γ, PRMT5, G9a, GLP), prednisolone, hydrocortisone, RU486 or GSK595.
The target of test [10] is GST-HP1γ fusion protein (UniProt Q13185). The experiment in a line: pull-down; GST fusion proteins incubated with in vitro-translated proteins in 200 μl binding buffer (Tris 20 mM pH 7.4, NaCl 0.1 M, EDTA 1 mM, glycerol 10%, Igepal 0.25%, 1 mM DTT, 1% milk) for 2 h at RT; Western blot; 100 nM Dex where indicated; only the target purified.
The target of test [11] is GST-PRMT5 fusion protein (UniProt O14744). The test is described as above.

On to “GR overexpressed in Cos-7 cells (pcdna3.1-GR) (from UniProt P04150 1-777) (receptor)”, for which the binding result in [1] is “binds”.
“HA-HP1γ overexpressed in Cos-7 cells (pcdna3.1-HA-HP1γ) (from UniProt Q13185 1-183)”: the binding entry in test [1] is recorded as “binds”.
On to “HP1γ (CBX3), endogenous (from UniProt Q13185 1-183)”, for which the binding entry in test [2] and in [3] was “binds” in each case.
On to “V5-PRMT5 overexpressed in Cos-7 cells (psg5-V5-PRMT5) (from UniProt O14744 1-637) (enzyme)”, for which the binding result in [4], in test [5] and in test [6] was “binds” throughout.
With “arginine methyltransferase PRMT5, endogenous (from UniProt O14744 1-637) (enzyme)”, the binding result was “binds weakly” in test [7], “binds” in test [8] and “binds” in test [9].
Take “glucocorticoid receptor (GR), endogenous (from UniProt P04150 1-777)”: in [2], the binding entry was “binds”.
Take “in vitro-translated GR (pcdna3.1-GR) (from UniProt P04150 1-777) (receptor)”: the binding entry in test [10] was “no binding”; in test [11], “binds”.
As to “in vitro-translated PRMT5 (psg5-V5-PRMT5) (from UniProt O14744 1-637) (enzyme)”, the binding entry in test [10] was “binds”.
